Reference: the supplement of paper PMC9446081
The whole screen tested about 39,000 compounds, of which about 220 (0.56%) showed activity. The list shows a part of the results.

Each compound was assayed on Escherichia coli K-12 BW25113 (assay: relative growth (OD600 normalised to plate interquartile mean) (fraction); higher = less growth inhibition, active = 0.2 or less). Settings: 50 µM; LB; incubation time: overnight (16-24 h).
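Further: static incubation at 37 °C against the wild-type strain, values averaged over two biological replicates.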

Compound	relative growth
COc1ccc([C@H]([C@H](Cc2ccccc2)OC(C)=O)N(CC#C[C@@H](O[Si](c2ccccc2)(c2ccccc2)C(C)(C)C)c2ccccc2)[C@@H](Cc2ccccc2)C(OC)OC)cc1	inactive: 1.04
COCCNC(=O)C[C@H]1CC[C@H]2[C@@H](COC[C@H](O)CN2C(=O)Nc2ccc3c(c2)OCO3)O1	inactive: 0.999
C[C@@H]1CN([C@@H](C)CO)C(=O)c2cc(NS(=O)(=O)c3cccs3)ccc2O[C@@H](C)CCCCO[C@H]1CN(C)S(=O)(=O)c1ccc(Cl)cc1	inactive: 0.987
C[C@@H]1CN([C@@H](C)CO)C(=O)c2ccccc2-c2ccccc2CO[C@@H]1CN(C)Cc1ccc(-c2ccccc2)cc1	inactive: 1
C[C@@H]1CN([C@@H](C)CO)C(=O)c2cc(NS(=O)(=O)c3cccs3)ccc2O[C@@H](C)CCCCO[C@@H]1CN(C)Cc1ccccc1	inactive: 0.977
CC1(C)SC2C(NC(=O)C(NC(=O)N3CCNC3=O)c3ccccc3)C(=O)N2C1C(=O)[O-].[Na+] (stereo not drawn)	inactive: 0.263
C[C@@H]1CN([C@H](C)CO)C(=O)c2cccc(NC(=O)NC3CCCCC3)c2O[C@H]1CN(C)Cc1ccc(Cl)c(Cl)c1	inactive: 0.96
O=C1c2ccccc2[C@@]2(Cc3ccccc3N(C3CC3)C2=O)[C@H](c2ccc(CO)cc2)N1Cc1ccccc1	inactive: 1.01
Cc1[nH]c(=O)n(C(C)(C)C)c(=O)c1C	inactive: 1
C[C@H]1CN([C@@H](C)CO)C(=O)c2cc(NC(=O)CCN3CCOCC3)ccc2O[C@H]1CN(C)Cc1ccc(C(=O)O)cc1	inactive: 1.01
COCC(=O)N1C[C@@H](C)[C@@H](OC)CN(C)C(=O)c2cc(NC(=O)c3ccc(F)cc3)ccc2OC[C@@H]1C	inactive: 1.01
O[C@@H](CCl)CN1CC[N+]2(CC1)CC[N+]1(CCN(C[C@@H](O)CCl)CC1)CC2	inactive: 1
CC(C)c1cc2c(cc1S(=O)(=O)O)[C@@]1(C)CCC[C@@](C)(C(=O)O)[C@@H]1CC2	inactive: 0.998
Cc1ccc(S(=O)(=O)N(C)C[C@H]2Oc3c(NC(=O)c4cnccn4)cccc3C(=O)N([C@H](C)CO)C[C@@H]2C)cc1	inactive: 0.975
O=C(C[C@H]1CC[C@@H]2[C@H](COC[C@H](O)CN2C(=O)Nc2cc(Cl)cc(Cl)c2)O1)N1CCOCC1	inactive: 0.985
COc1ccc(S(=O)(=O)N(C)C[C@H]2OCCCC[C@H](C)Oc3ccc(NC(=O)CCC(F)(F)F)cc3C(=O)N([C@@H](C)CO)C[C@@H]2C)cc1	inactive: 0.929
C[C@@H]1CN([C@@H](C)CO)C(=O)CCCn2nncc2CO[C@H]1CN(C)S(=O)(=O)c1cccc(C#N)c1	inactive: 0.966
COCCOC(=O)N1C(=O)[C@@]2(c3cc(C#CCCO)ccc31)[C@H](c1ccc(O)cc1)N1[C@H](c3ccccc3)[C@H](c3ccccc3)OC(=O)[C@H]1[C@@H]2C(=O)NC[C@H](O)c1ccccc1	inactive: 1.01
C[C@@H]1CCCCO[C@H](CN(C)C(=O)Cc2ccccc2)[C@@H](C)CN([C@H](C)CO)C(=O)c2cc(NC(=O)C3CCCCC3)ccc2O1	inactive: 0.978

Compound	relative growth
C[C@@H]1CCCCO[C@@H](CN(C)C(=O)C2CCCCC2)[C@@H](C)CN([C@H](C)CO)C(=O)c2cc(NC(=O)Cc3ccccc3)ccc2O1	inactive: 0.998
CC(C)(O)C#Cc1ccc([C@@H]2[C@H](CO)N3CCCCN(S(C)(=O)=O)C[C@@H]23)cc1	inactive: 1.04
NCC(=O)NC1CCCCC1	inactive: 1.01
Cc1cc(C(=O)Nc2cccc3c2O[C@H](CN(C)Cc2ccccc2)[C@@H](C)CN([C@H](C)CO)C3=O)n(C)n1	inactive: 1
C[C@H]1CN([C@@H](C)CO)C(=O)c2cc(NC(=O)C3CC3)ccc2O[C@H]1CN(C)S(=O)(=O)c1cccs1	inactive: 0.998
CC(=O)N[C@@H]1CC[C@@H](CCNC(=O)C2CC2)O[C@@H]1CO	inactive: 0.988
COCC(=O)N1C[C@H](C)[C@@H](OC)CN(C)C(=O)c2cc(NC(=O)Nc3ccccc3)ccc2OC[C@@H]1C	inactive: 1.03
C[C@@H]1CN([C@H](C)CO)S(=O)(=O)c2ccc(C#CC3CC3)cc2O[C@H]1CN(C)C(=O)c1cccc(F)c1	inactive: 1.02
Cc1cnccc1CN1C[C@H](C(=O)O)CC1=O	inactive: 1.02
Cc1noc(C)c1S(=O)(=O)Nc1ccc2c(c1)C(=O)N([C@@H](C)CO)C[C@@H](C)[C@@H](CN(C)S(C)(=O)=O)O2	inactive: 1.01
COc1ccc([Si](C)(C)[C@H]2[C@H](CCn3cc([C@H](O)c4ccccc4)nn3)O[C@@]3(C(=O)N(Cc4ccc(N5CCC5=O)cc4)c4ccccc43)[C@@H]2C)cc1	inactive: 1.02
O=C(C[C@H]1CC[C@@H]2[C@H](COC[C@H](O)CN2C(=O)c2ccc3c(c2)OCO3)O1)NCCN1CCCCC1	inactive: 1.01
C[C@H]1CN([C@@H](C)CO)C(=O)CCCn2cc(nn2)CO[C@H]1CN(C)S(=O)(=O)c1ccc(-n2cccn2)cc1	inactive: 0.993
Cn1cc(C(=O)N2CC[C@H]3[C@@H]2CCN3S(C)(=O)=O)cn1	inactive: 0.99
O=C(C[C@@H]1CC=CCC[C@H](Cc2ccc(F)cc2)C(=O)OC[C@H](Cc2c[nH]c3ccccc23)NC1=O)N[C@H](CO)Cc1ccccc1	inactive: 1.01
CCCc1cc(=O)[nH]c(=S)[nH]1	inactive: 1.05
CC1(C)CC[C@]2(C(=O)O[C@@H]3OC[C@@H](O)[C@H](O)[C@H]3O)CC[C@]3(C)C(=CC[C@H]4[C@@]5(C)C[C@@H](O)[C@H](O)[C@@](C)(CO)[C@@H]5[C@H](O)C[C@]43C)[C@@H]2C1	inactive: 0.995
C[C@H](CO)N1C[C@H](C)[C@@H](CN(C)C(=O)Nc2ccccc2)Oc2c(NC(=O)c3ccc(-c4nccs4)cc3)cccc2C1=O	inactive: 0.975
CC(C)NC(=O)Nc1ccc2c(c1)C(=O)N([C@H](C)CO)C[C@@H](C)[C@H](CN(C)C(=O)Nc1ccc3c(c1)OCO3)O2	inactive: 0.969
